Out of some 48,000 compounds screened, about 120 (0.25%) were called active. Roughly 4% stayed inconclusive and do not appear here. The call rests on the fitted dose curve; in most records, active means well fitted activation curve with a large enough effect; inconclusive means small, poorly fitted or top-dose-only effect, or another doubt; inactive means no such curve, though single readings can be large or run the other way. The list shows a part of the results.

A short description of this experiment: Primary qHTS for Identification of Small Molecule Activators of Huntingtin-Antisense Promoter Activity. Further: nearly all actives have a fitted effect of over 55% in size. Conditions: HEK293 HTT-AS promoter firefly luciferase reporter (activity 0% = vehicle and -100% = no light), 24 h; series mostly up to 57.5 µM; activity change, positive = activation: at the top concentration. The essentials:
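HEK293 luciferase promoter-reporter cells (2,500/well) plated 24 h, then compounds added at up to 57.5 uM final for 24 h at 37 °C. Firefly luminescence by Dual-Glo, normalized to vehicle (0%) and zero RLU (-100%).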
On to `CCc1nc2ccc(C(=O)N3CCN(c4cccc(Cl)c4)CC3)cc2nc1CC`, for which the “activity change, positive = activation” value was inactive: -35.4%.
The same measure for `CC(C)c1ccc(Nc2sc(C(=O)c3ccccc3)c(N)c2S(=O)(=O)c2ccccc2)cc1`: inactive: -15.7%.
For `CC(C)CC(=O)Nc1nnc(S(=O)(=O)N2c3ccccc3CC2C)s1` (stereo not drawn), the “activity change, positive = activation” value is inactive: -10.7%.
As to `CCOc1ccc(C(=O)NCCc2csc(-c3cccc(C)c3)n2)cc1`, the “activity change, positive = activation” value is inactive: -9.2%.
Consider `Cc1ccc(N2CCN(C(=O)Cn3ncc4c([nH]c5ccc(C)cc54)c3=O)CC2)c(C)c1`, for which the “activity change, positive = activation” value was inactive: -5.72%.
For the molecule `COc1cc2c(cc1OC)C(CC(=O)O)N(C(=O)Nc1cc(OC)c(OC)c(OC)c1)CC2` (stereo not drawn), the “activity change, positive = activation” value is inactive: 0.133%.
The same measure for `CCc1ccc(C2=NN(CCC(=O)NCCc3ccccc3)C(=O)CC2)cc1`: inactive: -8.17%; for `COc1ccc2c(c1)c1c(c(=O)n(-c3cccc(C)c3)c(=O)n1CC(=O)NCCC1=CCCCC1)n2C`: inactive: -9.31%.
The same measure for `COc1ccccc1Nc1nc(-c2ccccc2)c(CC(=O)O)s1`: inactive: 7.51%; for `CCOC(=O)c1c(-c2ccc(OC)c(OC)c2)csc1NC(=O)c1ccccc1F`: inactive: -6.5%; for `Cc1cccc(CNS(=O)(=O)c2ccc(-c3coc(C)n3)cc2)c1`: inactive: -30.8%.
For the molecule `Cc1ccc2nc3c(cc(C(=O)NC4CCCC4)c(=N)n3C(C)C)c(=O)n2c1`, the “activity change, positive = activation” value is inactive: 21.9%.
Turning to `CCC(Nc1ccc(-c2nc(-c3cccnc3)no2)cc1[N+](=O)[O-])c1ccccc1` (stereo not drawn), the “activity change, positive = activation” value was inactive: 3.8%.
The same measure for `O=c1c2cccnc2n(Cc2cccc(F)c2)c(=O)n1Cc1ccc(F)cc1`: inactive: -35.5%; for `Cc1ccccc1OCC(=O)Nc1ccc2nc(SCC(=O)N3CCCC3)sc2c1`: inactive: -5.93%; for `O=C1Cc2cc(S(=O)(=O)Nc3ccc(OC(F)(F)F)cc3)cc3c2N1CCC3`: inactive: -27.1%.
`COc1ccc(S(=O)(=O)c2nnn(-c3cccc(Cl)c3)c2N)cc1`: the “activity change, positive = activation” value was inactive: -35%.
Regarding `CCOC(=O)c1cc(-c2ccc(OC)c(S(=O)(=O)N3CCN(c4ccccc4)CC3)c2)on1`, the “activity change, positive = activation” value is inactive: -18.4%.
The same measure for `CCOCCOC(=O)c1ccc2c(c1)N(Cc1ccccc1C#N)C(=O)c1ccccc1S2(=O)=O`: inactive: 0.322%; for `CCN(c1ccccc1)S(=O)(=O)c1ccc(NC(=O)c2nc(S(C)(=O)=O)ncc2Cl)cc1`: inactive: -96.8%.
Take `CCc1ccc(C(=O)COC(=O)C(NC(=O)C2CCC(C)CC2)C(C)C)cc1` (stereo not drawn): the “activity change, positive = activation” value is inactive: -2.24%.
As for `CCOc1ccc(CCNC(=O)CCCn2c(=O)c3cccn3c3cccnc32)cc1`, the “activity change, positive = activation” value was inactive: -6.57%.
The same measure for `COc1cc(CNC(=O)c2cnc3c(-c4cccc(C)c4)c(C)nn3c2C)cc(OC)c1OC`: inactive: -20.6%.
Consider `COc1ccc(-c2cc3ccc(O)c(CN4CCN(C)CC4)c3oc2=O)cc1OC`, for which the “activity change, positive = activation” value is inactive: 2.63%.
With `O=C(NC1CC(=O)N(c2ccc(Cl)cc2)C1)c1cc2ccccc2o1` (stereo not drawn), the “activity change, positive = activation” value is inactive: -10.9%.
The same measure for `CC(=O)Nc1ccc(Nc2ccc3cc(S(=O)(=O)N4CCCCC4)ccc3n2)cc1`: inactive: -24.1%.
Take `CCCc1ccc(OCC(=O)Nc2sc3c(c2C(=O)OCC)CCC(C(C)(C)C)C3)cc1` (stereo not drawn): the “activity change, positive = activation” value is inactive: -19.7%.
The same measure for `CC(=O)Oc1cc(C(C)C)c(OCCN(C)C)cc1C`: inactive: -5.5%; for `Nc1cc(=O)nc(SCC(=O)Nc2ccccc2)n1CCc1ccccc1`: inactive: -2.2%.
On to `COC1CCC(N(C(=O)C2CCC(C)CC2)c2cc(C3=CCCCC3)sc2C(=O)O)CC1` (stereo not drawn), for which the “activity change, positive = activation” value is inactive: -25.2%.
The same measure for `CC1=C(c2ccc(Cl)cc2)S(=O)(=O)N=C1N1CCN(c2cc(C)ccc2C)CC1`: inactive: -12.7%.
The same measure for `COc1ccc(CNC(=O)C(=O)NCC(c2cccnc2)N2CCN(c3ccccc3)CC2)cc1` (stereo not drawn): inactive: -36.2%; for `Cc1cccc(N(C)S(=O)(=O)c2ccc3c(c2)NC(=O)CC(=O)N3)c1`: inactive: -5.17%.
The same measure for `CCCN1CCCc2cc(CN(CCCN3CCOCC3)C(=O)Nc3ccc(Cl)c(Cl)c3)ccc21`: inactive: -33.1%; for `COc1cccc(Cn2c(=O)n(Cc3ccccc3)c(=O)c3c2c2cc(OC)ccc2n3C)c1`: inactive: -11.6%; for `CCOc1c(N2CCOCC2)cnn(C)c1=O`: inactive: -0.452%.
As for `Cc1cc2[nH]c(=O)c(=O)[nH]c2cc1S(=O)(=O)N1CCN(c2ccccc2F)CC1`, the “activity change, positive = activation” value is inactive: -6.27%.
For the molecule `COc1ccc2sc(N(Cc3cccnc3)C(=O)CCc3ccccc3)nc2c1`, the “activity change, positive = activation” value was inactive: -34.4%.
Regarding `CCOC(=O)c1c(S(=O)(=O)N2CCC(C(=O)NCc3ccccc3Cl)CC2)c(C)n(C)c1C`, the “activity change, positive = activation” value is inactive: 10.5%.
The same measure for `COCCn1ccc2c(OCC(=O)Nc3cccc(C(F)(F)F)c3)cccc2c1=O`: inactive: -21.2%; for `COc1cccc(CNC(=O)c2ccc3c(c2)sc2nc(-c4cccc(OC)c4)cn23)c1`: inactive: 24.5%.
On to `COc1ccc(N2CC(NC(=O)C(c3ccccc3)c3ccccc3)CC2=O)cc1` (stereo not drawn), for which the “activity change, positive = activation” value was inactive: -6.94%.
In the case of `CCOC(=O)c1ccc(NC(=O)Cn2nc(C)c3nn(-c4ccc(Cl)cc4)c(C)c3c2=O)cc1`, the “activity change, positive = activation” value was inactive: -17.5%.
Turning to `CCc1nc2nc(C)cc(Nc3cc(C)ccc3C)n2n1`, the “activity change, positive = activation” value was inactive: -19.1%.
In the case of `Cc1cccc(N2CCN(C(=O)c3cnn(-c4ccccc4)c3C3CCN(C(=O)OC(C)(C)C)CC3)CC2)c1C`, the “activity change, positive = activation” value is inactive: -4.83%.
The same measure for `O=C(O)C1=CO[C@@H](O[C@@H]2O[C@H](CO)[C@H](O)[C@H](O)[C@H]2O)[C@@H]2C(CO)=CC[C@H]12`: inactive: 3.26%.
For the molecule `CCOC(=O)c1c(NC(=O)C(C)Sc2cn(CCNC(=O)c3ccc(OCC)cc3)c3ccccc23)sc2c1CCC2` (stereo not drawn), the “activity change, positive = activation” value was inactive: -38.1%.
`Clc1ccc(CSc2nncn3c2cc2occc23)cc1`: the “activity change, positive = activation” value is inactive: -22.3%.
